The target in this experiment is T1, IL-4Rα extracellular domain (residues 1 to 210) with C182A and Q207C, biotinylated and immobilised (human, biotinylated via the free thiol group).
T1 construct: extracellular domain of the human IL-4 receptor alpha chain, residues 1 to 210; also called IL-4RαECD; IL4-RαECD; source: baculovirus infected Sf9 insect cell culture, purified
Briefly: SPR; direct binding of IL-13 alone to IL-4RαECD; below detection limit; apparent. The following applies: both partners purified.

B1: human interleukin 13 (wild type) (ligand)
chain: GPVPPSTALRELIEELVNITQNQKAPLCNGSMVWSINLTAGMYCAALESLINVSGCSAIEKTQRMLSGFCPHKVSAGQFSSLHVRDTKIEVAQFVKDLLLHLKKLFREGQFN
For the molecule B1, the Kd is more than 100 µM.

For the origin of these results see paper PMC1479839 (BMC Biology, 2006).
